Assay results published in PMC4336329 (PLoS ONE, 2015).
Hit rate of the full screen: of about 310,000 compounds, about 14,000 (4.5%) showed an effect of 50% or more. The effect is printed as a negative number. The list shows a part of the results.

Target: human ether-à-go-go-related gene (hERG) potassium channel (human, UniProt Q12809)
Test: primary screen, population patch clamp on CHO cells stably expressing hERG
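Note: peak tail current of the secondary pulse compared with the same well before compound.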

Sequence of human ether-à-go-go-related gene (hERG) potassium channel (Q12809 whole entry, looked up): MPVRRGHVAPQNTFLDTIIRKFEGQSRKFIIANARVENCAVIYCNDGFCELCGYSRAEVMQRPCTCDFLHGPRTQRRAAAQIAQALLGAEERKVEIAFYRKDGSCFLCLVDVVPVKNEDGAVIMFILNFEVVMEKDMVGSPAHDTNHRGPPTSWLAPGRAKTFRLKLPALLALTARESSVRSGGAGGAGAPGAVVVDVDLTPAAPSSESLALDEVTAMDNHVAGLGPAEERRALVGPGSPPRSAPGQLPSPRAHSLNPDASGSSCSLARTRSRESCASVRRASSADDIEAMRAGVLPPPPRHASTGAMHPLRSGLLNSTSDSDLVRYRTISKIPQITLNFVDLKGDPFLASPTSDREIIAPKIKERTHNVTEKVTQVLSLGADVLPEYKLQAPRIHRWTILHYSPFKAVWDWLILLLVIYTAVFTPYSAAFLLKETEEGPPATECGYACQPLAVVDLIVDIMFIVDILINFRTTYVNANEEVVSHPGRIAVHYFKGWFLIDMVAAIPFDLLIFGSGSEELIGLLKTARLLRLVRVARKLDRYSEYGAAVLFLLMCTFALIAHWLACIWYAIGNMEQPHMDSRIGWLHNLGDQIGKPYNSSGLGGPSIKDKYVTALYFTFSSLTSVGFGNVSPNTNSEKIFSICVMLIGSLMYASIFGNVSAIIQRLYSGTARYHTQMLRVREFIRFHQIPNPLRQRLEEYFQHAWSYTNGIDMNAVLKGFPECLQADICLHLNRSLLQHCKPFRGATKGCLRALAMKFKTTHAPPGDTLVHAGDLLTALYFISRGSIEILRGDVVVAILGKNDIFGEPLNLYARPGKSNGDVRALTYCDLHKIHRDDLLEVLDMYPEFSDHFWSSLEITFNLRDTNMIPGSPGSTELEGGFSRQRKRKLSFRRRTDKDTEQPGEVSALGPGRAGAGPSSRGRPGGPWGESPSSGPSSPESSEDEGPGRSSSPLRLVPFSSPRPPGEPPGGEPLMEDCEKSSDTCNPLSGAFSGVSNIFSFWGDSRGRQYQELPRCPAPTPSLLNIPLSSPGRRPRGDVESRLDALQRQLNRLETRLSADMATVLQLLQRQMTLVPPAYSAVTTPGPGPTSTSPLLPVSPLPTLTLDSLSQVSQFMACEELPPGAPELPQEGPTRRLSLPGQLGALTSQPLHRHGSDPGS

Structure (SMILES)	hERG current change (%, negative = inhibition) at 10uM [%]
COc1ccc(CCNC(=O)C2CCN(C(=O)c3ccc(F)cc3)CC2)cc1OC	13.1
CC(C)CNC(=O)NC(=O)COC(=O)c1cc([N+](=O)[O-])ccc1NCc1ccccc1Cl	10.1
COc1cc(/C=N/O)c(Br)cc1OCC(=O)Nc1ccccc1C	11.1
COc1ccc(N(C(=O)c2snc(C(N)=O)c2N)C(C(=O)NC2CCCCC2)c2ccc(C)o2)cc1 (stereo not shown)	5.37
Nc1nnc(SCC(=O)NC2CCCCCCC2)s1	16.9
CC(OC(=O)c1ccc2c(c1)C(=O)N(Cc1ccncc1)C2=O)C(=O)Nc1cccc(Cl)c1Cl (stereo not shown)	-11.1
CCOc1ccccc1OCC(=O)Nc1cccc(S(=O)(=O)NC2=NCCCCC2)c1	-30.7
CN1CCN(C(=O)c2cc3ccccc3[nH]2)CC1	-3.26
COc1ccc(/C=N/N(C)c2cc(=O)n(C)c(=O)[nH]2)cc1OC	1.39
Cc1nn(-c2ccccc2)c2c1C(c1ccncc1)C(C#N)=C(N)O2 (stereo not shown)	0.763
Cc1ccc(-c2nnn(CC(=O)NCCC3=CCCCC3)n2)cc1	17.8
CCc1cc(C(=O)Nc2cc(S(=O)(=O)N(CC)CC)ccc2N2CCOCC2)sc1C	4.41
Cc1nc2ccccc2c(=O)n1/N=C/c1ccc(C(C)C)cc1	0.213
O=C1CCc2nc3ccccc3c(=O)n2N1	6.03
O=C(NCc1ccco1)c1ccc(N2CCCC2=O)cc1	4.3
CC(=O)OC(C(=O)N1CCN(c2ccc(F)cc2)CC1)c1ccccc1 (stereo not shown)	-15.9
Cc1ccc2cc(CN(CC3CCCO3)C(=O)C(C)C)c(=O)[nH]c2c1 (stereo not shown)	-12.2
CC/C(=N/NC(=O)c1ccc2c(c1)OCO2)c1ccccc1O	-9.92
Nc1ccccc1-n1cccc1	10.5
COC1C(OC(=O)c2ccc(C)[nH]2)C(O)C(Oc2ccc3c(O)c(NC(=O)c4ccc(O)c(CC=C(C)C)c4)c(=O)oc3c2Cl)OC1(C)C (stereo not shown)	13.1
NC(=O)c1ccc(NC(=O)CSc2cn(CC(=O)N3CCOCC3)c3ccccc23)cc1	20.8
Cc1ccc(S(=O)(=O)c2c(C(=O)c3ccccc3)cnc3cc4c(cc23)OCCO4)cc1	13.7
CC(C)CN=Cc1c(O)c([N+](=O)[O-])cc2oc3c(c12)CCCC3	0.113
O=C(O)c1ccc(Cl)c(N2C(=O)Nc3ccccc3N2O)c1	22.9
COC(=O)c1[nH]c2ccc(C)cc2c1NC(=O)C(C)N1CCN(C2CCCCC2)CC1 (stereo not shown)	-77
Cc1c(CCC(=O)N2CCC(C(=O)NCCCCCC(=O)O)CC2)c(=O)oc2cc3oc4c(c3cc12)CCCC4	3.56
C=CCOc1ccc(/C=N/NC(=O)C2CCCC2)cc1OCC	0.832
COc1cccc(C(=O)c2cc3cc(Cl)ccc3[nH]2)c1	21.2

Structure (SMILES)	hERG current change (%, negative = inhibition) at 10uM [%]
Cc1ccc(NC(=O)N2CCC(NC(=O)c3cccc(F)c3)CC2)cc1	-15.3
COc1cccc(CNc2cnc3ccccc3c2)c1O	5.72
O=c1c2ccccc2n(Cc2ccccc2F)c(=O)n1Cc1ccccc1F	5.76
COC(=O)[C@H](CC(C)C)NS(=O)(=O)N[C@@H](CC(C)C)C(=O)OC	16.9
CSc1nc(=NC(C)=O)ss1	18.3
COc1ccc(CN2C(=O)c3cccnc3C2=O)cc1S(=O)(=O)N1CC(C)Oc2ccccc21 (stereo not shown)	-28.1
Cc1cc(N2CCCC2)nc(-c2ccccc2O)n1	-1.15
Cc1cc(C)c(C(=O)NCCCN2CCOCC2)c(C)c1	7.95
CCOc1ccc(-n2c(SCC(=O)Nc3ccc4c(c3)OCO4)nc3ccccc3c2=O)cc1	11.1
COc1ccccc1C(=O)NCC(=O)NNC(=O)C1COc2ccccc2O1 (stereo not shown)	2.49
CCOC(=O)CCCCC(=O)c1[nH]c(=O)[nH]c1CSCCO	10.4
O=C(NCC1CCCO1)c1cccc(NC(=O)c2ccccc2)c1 (stereo not shown)	8.62
CCn1ncc2c1C(=O)NC1c3ccccc3C(=O)N21 (stereo not shown)	3.28
O=C(NCCCn1ccnc1)/C(=C\c1cccnc1)NC(=O)c1cccc(Br)c1	-0.509
CC(C)(C)OC(=O)N1CCC(C(=O)N2CCCCCC2)CC1	11.6
[Cl-].c1ccc(-[n+]2nc(Nc3cccc4ccccc34)sc2-c2c3ccccc3cc3ccccc23)cc1	18
Cc1ccc2c(c1)N(C(=O)CCC(=O)NCCN1CCOCC1)CCO2	-5.63
COc1cccc(/C=C/c2onc(C)c2S(=O)(=O)N2CCC(C(=O)NC3CCCCCC3)CC2)c1	6.49
Cc1ccc(NC(=O)CCN2C(=O)c3ccccc3S2(=O)=O)cc1F	-2.5
O=C1CCN(c2ccc([N+](=O)[O-])cc2F)CC1	10.5
COc1ccc(-c2nnc(NC(=O)c3ccc(F)cc3)o2)cc1	2.78
CC(C)CCn1nnnc1CN1CCN(c2ccc(F)cc2)CC1	-19.2
CC(Cc1cccs1)NC(=O)NC1CCCCC1 (stereo not shown)	4.12
CC(=O)Nc1nc2ccc(-c3nc4ccccc4o3)cc2s1	2.79
O=C(Nc1ccc(Cl)cc1)c1csc(Cc2ccccc2)n1	9.91
C/C(Cn1nc([N+](=O)[O-])cc1C)=N\NC(=O)c1ccc(C(C)(C)C)cc1	-38.9
CCCCn1c(-c2cccc3ccccc23)nc2cc3[nH]c(=O)c(C(C)C)nc3cc21	-0.565
